The structures appear in SMILES notation. Values joined by “and” are separate entries in the source; they are usually repeats but may differ in a detail not shown here. Equal entries are not always repeated. The list shows a part of the results. The main result of the screen is listed elsewhere. These columns were measured beside it and carry no call.

Common to all, as to assay: Primary Screen for Target Class Profiling of Small Molecule Inhibitors of Methyltransferases
Assay [1] addresses Glycine N-methyltransferase (Homo sapiens) (UniProt Q14749). The conditions noted are these: purified enzyme, MTase-Glo SAH luminescence; measured here: GNMT inhibition; at 40 µM; stronger effect = lower value. In a few lines: (§1)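 Each enzyme was assayed with SAM and its substrate. SAH formation detected by MTase-Glo luminescence; single-point 40 uM screen[…].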
Assay [2] addresses Guanidinoacetate N-methyltransferase (Homo sapiens) (UniProt Q14353). The conditions noted are these: purified enzyme, MTase-Glo SAH luminescence; measured here: GAMT inhibition; at 40 µM; stronger effect = lower value. In a few lines: as §1
Assay [3] has as its target Histamine N-methyltransferase (Homo sapiens) (UniProt P50135). To be noted: purified enzyme, MTase-Glo SAH luminescence; measured here: HNMT inhibition; at 40 µM; stronger effect = lower value. In a few lines:
as §1

For assay [4], the target named is Nicotinamide N-methyltransferase (Homo sapiens) (UniProt P40261). To be noted: purified enzyme, MTase-Glo SAH luminescence; measured here: NNMT inhibition; at 40 µM; stronger effect = lower value. The method in brief:
as §1

In assay [5] the target is Phenylethanolamine N-methyltransferase (Homo sapiens) (UniProt P11086). The conditions noted are these: purified enzyme, MTase-Glo SAH luminescence; measured here: PNMT inhibition; at 40 µM; stronger effect = lower value. The method in brief:
as §1
% is set by controls: 0 for no effect and ±100 for the full control effect.

With `Cc1ccc(C2c3cccn3-c3ccccc3CN2C(=O)NCc2ccco2)cc1` (stereo not given), the activity change, negative = inhibition in assay [1] was 7.42%; in assay [2], 0.854%; in assay [3] it was 3.97%; in assay [4], -0.644%; in assay [5], 2.94%.
For `Cc1cc(C)cc(NC(=O)N2Cc3ccccc3-n3cccc3C2C)c1` (stereo not given), in that order: 7.45%, 0%, 3.39%, 6.66% and 6.12%.
For `COC1CN(c2ccc(C)cc2)C12CCNCC2` (stereo not given), in that order: -1.28%, 0.262%, 0.462%, 3.59% and 2.88%.
For `O=C(O)CCCCCCNC1c2ccccc2CCc2ccccc21`, in that order: 1.46%, 4.32%, 12.4%, -8.86% and 5.52%.
In the case of `Cc1ccc(C)c(NC(=O)N2Cc3ccccc3-n3cccc3C2c2ccccc2C)c1` (stereo not given), the activity change, negative = inhibition in assay [1] is 4.43%; in assay [2], 0%; in assay [3] it was 3.51%; in assay [4], 1.31%; in assay [5], -0.745%.
For `Cc1ccc(C2c3cccn3-c3ccccc3CN2C(=O)Nc2ccc(C)cc2Cl)cc1` (stereo not given), the activity change, negative = inhibition in assay [1] was 7.39%; in assay [2] it was -1.02%; in assay [3], 5.35%; in assay [4] it was -3.71%; in assay [5] it was 0.438%.
Regarding `CN=C(NS(=O)(=O)c1ccc(Cl)cc1)N1C[C@H](c2ccccc2)C(c2ccc(Cl)cc2)=N1`, the activity change, negative = inhibition in assay [1] was 5.36%; in assay [2], -16.8%; in assay [3], 7.66%; in assay [4], -37.9%; in assay [5], -15.9%.
Turning to `CC1c2cccn2-c2ccccc2CN1C(=O)NC1CCCC1` (stereo not given), the activity change, negative = inhibition in assay [1] is 7.23%; in assay [2], 5.48%; in assay [3], 4.86%; in assay [4] it was -6.45%; in assay [5], 4.37%.
In the same order, the values of `COC1(C[S@@](=O)c2ccccc2)CCN(CCc2c[nH]c3ccc(F)cc23)CC1` are -0.743%, -0.784%, -1.79%, -14% and -9.88%.
For `O=C(Nc1ccccc1Cl)N1Cc2ccccc2-n2cccc2C1c1cccs1` (stereo not given), in that order: 8.25%, 3.57%, 3.73%, -3.05% and 9.75%.
In the same order, the values of `CCOc1ccc(C2c3cccn3-c3ccccc3CN2C(=O)Nc2cc(C)ccc2OC)cc1` (stereo not given) are 0.333%, 0%, -2.83%, 4.63% and 5.88%.
As to `CCC1c2cccn2-c2ccccc2CN1C(=O)Nc1cc(OC)ccc1OC` (stereo not given), the activity change, negative = inhibition is 1.53% in assay [1]; 0% in assay [2]; 3.14% in assay [3]; -0.755% in assay [4]; 4.16% in assay [5].
Regarding `CCC1c2cccn2-c2ccccc2CN1C(=O)Nc1ccccc1F` (stereo not given), the activity change, negative = inhibition was -7.2% in assay [1]; 0% in assay [2]; -2.09% in assay [3]; -4.44% in assay [4]; 0.964% in assay [5].
In the same order, the values of `CSc1ccc(C2c3cccn3-c3ccccc3CN2C(=O)Nc2cc(C)cc(C)c2)cc1` (stereo not given) are 3.44%, 1.74%, 0.988%, 5.31% and 6.76%.
In the same order, the values of `Cc1ccc(CNC(=O)N2Cc3ccccc3-n3cccc3C2c2ccc(C)cc2)cc1` (stereo not given) are 13.1%, 0.249%, 7.46%, 9.93% and 8.31%.
For `COc1ccc(NC(=O)N2C[C@@H]3C[C@H](C2)c2c(NC(=O)CSC)ccc(=O)n2C3)cc1`, in that order: -7.73%, -8.44%, -6.58%, -11.2% and -5.35%.
For the compound `Cc1cccc(NC(=O)NC2N=C(c3ccccc3)c3ccccc3N(CC(=O)c3ccccc3C)C2=O)c1` (stereo not given), the activity change, negative = inhibition was 0.339% in assay [1]; -35% in assay [2]; 10.2% in assay [3]; -48.6% in assay [4]; -11.2% in assay [5].
`Cc1ccc(NC(=O)N2Cc3ccccc3-n3cccc3C2C(C)C)c(C)c1` (stereo not given): the activity change, negative = inhibition was 1.39% in assay [1]; 0% in assay [2]; 6.89% in assay [3]; 2.93% in assay [4]; 7.02% in assay [5].
In the same order, the values of `COc1ccc(NC(=O)N2Cc3ccccc3-n3cccc3C2c2ccccc2Cl)c(OC)c1` (stereo not given) are 6.96%, 4.55%, 8.28%, -6.87% and -2.63%.
In the same order, the values of `O=C(NCc1ccc(F)cc1)[C@H]1CN2CCC1C[C@@H]2Cn1cc(CSc2ccccc2)nn1` (stereo not given in full) are -3.61%, -7.42%, 0.634%, -9.62% and -0.339%.
Regarding `COC1CC(O[C@H]2CC[C@]3(C=O)C4CC[C@]5(C)[C@@H](C6=CC(=O)OC6)CC[C@]5(O)[C@@H]4CC[C@]3(O)C2)OC(C)C1O[C@@H]1O[C@H](CO)[C@@H](O)[C@H](O)[C@H]1O` (stereo not given in full), the activity change, negative = inhibition in assay [1] is 4.77%; in assay [2] it was 2.84%; in assay [3], 3.3%; in assay [4], -8.82%; in assay [5] it was 5.37%.
On to `CCCN1CCC[C@@H]2Cc3[nH]ncc3C[C@H]21`, for which the activity change, negative = inhibition in assay [1] is -7.77% and 3.01%; in assay [2], 3.13% and 10%; in assay [3] it was -7.31% and 3.49%; in assay [4], -1.91% and -4.37%; in assay [5] it was 3.4% and 1.91%.
With `CCCCCn1cc(C(=O)Cc2ccccc2OC)c2ccccc21`, the activity change, negative = inhibition in assay [1] is 1.24%; in assay [2], -16.3%; in assay [3], 1.3%; in assay [4], -24.4%; in assay [5], -13.4%.
In the same order, the values of `C[C@@H](N)Cc1cnc[nH]1` are -1.42%, 10%, 108%, -1.59% and 10.4%.
For `O=C(Nc1ccccc1F)N1Cc2ccccc2-n2cccc2C1c1ccc(F)cc1` (stereo not given), in that order: -2.06%, -1.07%, -2.26%, -6.15% and -0.011%.
Take `Clc1cc(I)cc(Cl)c1NC1=NCCN1`: the activity change, negative = inhibition in assay [1] is 5.89%; in assay [2], 10.7%; in assay [3] it was 2.67%; in assay [4], -6.11%; in assay [5], 0.266%.
As to `COCCCNC(=O)N1Cc2ccccc2-n2cccc2C1c1ccc(C(C)C)cc1` (stereo not given), the activity change, negative = inhibition in assay [1] is -3.04%; in assay [2], 0%; in assay [3] it was 6.5%; in assay [4], -4.38%; in assay [5], 0.38%.
For `Cc1ccc(C2c3cccn3-c3ccccc3CN2C(=O)Nc2ccc(Cl)cc2)cc1` (stereo not given), in that order: 12.1%, 0%, 0.191%, 1.33% and 1.12%.
`O=C1CN=C(c2ccccc2Cl)c2cc(Br)ccc2N1`: the activity change, negative = inhibition is -23.3% in assay [1]; -31.3% in assay [2]; -11.3% in assay [3]; -45.9% in assay [4]; -16.4% in assay [5].
As to `C[C@@H]1O[C@@H](O[C@H]2C[C@@H](O)[C@]3(CO)[C@H]4[C@H](O)C[C@]5(C)[C@@H](C6=CC(=O)OC6)CC[C@]5(O)[C@@H]4CC[C@]3(O)C2)[C@H](O)[C@H](O)[C@H]1O`, the activity change, negative = inhibition in assay [1] was -5.21% and 6.08%; in assay [2], 2.03% and 8.14% and 2.34%; in assay [3], -2.38% and 5.31%; in assay [4] it was -7.67% and -2.67% and -9.18%; in assay [5], 0.685% and 7.63% and -0.315%.
